Results as given in paper PMC12136788.
This is one part of the list.

B1: chr5:40767622:40767623:-_ENSG00000132356_ENST00000397128|hu_mus|hu_hu_hu_mus_False|28_38 (ssRNA)
RNA: GGGAGUUCUACAGUCCGACGAUCAUCUUUUAUUGCGGCCCUCUUCAUGGGAUCCACCUGCAGCAUAUGUUUCAAAAGGCUGAUUACUGAAGGGUUUAAAUAUUGAGGGGUAUAGAAGAUCCCAUCACAUAUCUUCUUAAAAAGCAACAGAGGAUUGAGCAUCA
B2: chr14:76904430:76904431:+_ENSMUSG00000022010_ENSMUST00000022587|mus_mus|mus_mus_mus_hu_True|38_88 (ssRNA)
RNA: GGGAGUUCUACAGUCCGACGAUCUGCAGCCAAAAACACCCUCGUGGCGGGAGGGAGGGAACACCAGCAGCCUUGUAUAAGCUAGAUAAAAUCUUCUAGCUGUCUGCAGCCCAGGGAGAAACAGAAAACGGCAGCCCUAAUUUACAACAGAGGAUUGAGCAUCA
B3: chr5:95130247:95130248:+_ENSG00000164292_ENST00000379982|hu_mus|motif|central (ssRNA)
RNA: GGGAGUUCUACAGUCCGACGAUCAUGCCUUUGAGCAUCUUGCAGAACCAUUUCUGCCAAUAUAUGCUAUGAGAGAAACGGACUCUGCCUUUUAUCCCAGACACCAUCGUCUCUACAUCUAGGAUAUCUUUGAUGUACAUAAUUCAACAGAGGAUUGAGCAUCA
B4: chr7:103008174:103008175:+_ENSG00000161057_ENST00000292644|hu_hu|motif|central (ssRNA)
RNA: GGGAGUUCUACAGUCCGACGAUCACUCAUUGAACGAGCGUGAAUCUUAAAUAUGUGGGUCCGACCCUCUAGAUCGGGCAAGCGGAAUUCAAUUUUUCUAUCCAAUCUCCCUGGCCUCAUCAGUGCUGGAUCCAAAGUAUCAGGCAACAGAGGAUUGAGCAUCA
B5: chr7:149068622:149068623:-_ENSMUSG00000025139_ENSMUST00000001950|mus_hu|mus_mus_mus_hu_False|38_98 (ssRNA)
RNA: GGGAGUUCUACAGUCCGACGAUCGUGAGGCCUCUGAGUGAGGUUCCUGGUCUGUCCUGGGUUAGAGUUGUUAAUAUCACGGAACAUACCAUCUAGAGAGGUUCUGCCCCGCCUGACACCUUCAUUCCCAAUGGAGAAGAAAUCCAACAGAGGAUUGAGCAUCA
B6: chr4:124323543:124323544:+_ENSG00000164056_ENST00000339241|hu_mus|FALSE|FALSE (ssRNA)
RNA: GGGAGUUCUACAGUCCGACGAUCGCCCCUGCACAGCUUCAGGCAGCCCUUGGCGGGAGGGUAGCAGAGCAAGCAGGGUAGGCACAAAGACAGGGCUCCCAUGCACAGGUAUCUGGAGCAGCAGUGGGACUGUGAACAGGAGCACAACAGAGGAUUGAGCAUCA
B7: chr4:95690885:95690886:+_ENSMUSG00000028572_ENSMUST00000156910|mus_mus|mus_mus_mus_hu_False|38_78 (ssRNA)
RNA: GGGAGUUCUACAGUCCGACGAUCUUUAGAAAAUGUUAAAUACCAUGCUAAAAUAUUGUAAUUUUAAUAUUUUAUUUUACCAGAAGUCACAGGCAAGCAGACACCAUAAGAAUAUAUGAAAAUGAAACUCAACAAUAUAACUGUCAACAGAGGAUUGAGCAUCA
B8: chr12:39756943:39756944:-_ENSG00000139116_ENST00000544797|hu_mus|hu_hu_hu_mus_False|18_48 (ssRNA)
RNA: GGGAGUUCUACAGUCCGACGAUCGGUUUGGCUGUUACCCCCAAGGGAAUCCUGCAAGAGUCUUGUCAGCUUAGAGUCUCUGUAAGGGACAUGUGUGGCUCUCUUGCUCUUGUCCCCCAAGGCACUUAUUACAUUCCCAAGAGCCAACAGAGGAUUGAGCAUCA
B9: chr6:31700130:31700131:-_ENSG00000213719_ENST00000375779|hu_mus|FALSE|FALSE (ssRNA)
RNA: GGGAGUUCUACAGUCCGACGAUCAUCUUCGGCGCUGGUUUCAUCCACUUCUUCUGGGAGGGGGGAUGUCAGGUAAUUGUCUAGAACCUUCAGGGCUUUCAGGAGUCCCUUCUCUAGGUUGUCAUUGAGGGCUGGGUUUGAGUUCAACAGAGGAUUGAGCAUCA
B10: chr6:114281168:114281169:-_ENSG00000196591_ENST00000368632|hu_hu|hu_hu_hu_mus_True|18_78 (ssRNA)
RNA: GGGAGUUCUACAGUCCGACGAUCUUCCAUUUUUCGGUAUAAACCAUAAUUUAGCAGCAAGUUAUGGGUCAUCCGGAUUCUAUGAGGCUUCAUGGGAUGACCCUGGCCAUAAUAAUAAUUUCCAAUAUCACCAUCAUAGUAGUACAACAGAGGAUUGAGCAUCA
B11: chr9:4385736:4385737:+_ENSMUSG00000041124_ENSMUST00000047173|mus_mus|FALSE|FALSE (ssRNA)
RNA: GGGAGUUCUACAGUCCGACGAUCCUUGGCACUAAUGACAUCUUGGACUGGGUAAUUCUUUCUUGUGAAGACAACUAUGCUAAACAUGGUGAAGCCUCUCCUGAGGCUGGUAGCAUCCUACACCCAUUUACUUUGACCACCAAACAACAGAGGAUUGAGCAUCA
B12: chr5:132440482:132440483:+_ENSG00000170606_ENST00000304858|hu_hu|FALSE|FALSE (ssRNA)
RNA: GGGAGUUCUACAGUCCGACGAUCUUAAAGCAUAAUUAGAGCUCCUGCCAUGUAAGUCAUAAUGAAAAGUCUGCUGGAUAGCUAGAGCUGUAGCUAUAGCUCAACUUUCCAAAACAAACUUAUUCUUGUAGACACAUGGUUAAACAACAGAGGAUUGAGCAUCA
B13: 90060176_90060296_4292_3pUTR_ENSG00000197147_ENST00000439853|human|control|control (ssRNA)
RNA: GGGAGUUCUACAGUCCGACGAUCAUUCAUUAAAAAUAUGCAUAAUAAAAGGCCAAGCACAAAGCUCUUUAUAAAAAGGAGCAAAAUGUAUUUUCCAGAAGAGUUAGAUAAAGGCAUGAGAUGAAUUUCAGUUAAAUGGAUCUACAACAGAGGAUUGAGCAUCA
B14: chr7:149068622:149068623:-_ENSMUSG00000025139_ENSMUST00000001950|mus_hu|mus_mus_mus_hu_False|8_58 (ssRNA)
RNA: GGGAGUUCUACAGUCCGACGAUCGUGAGGCCUCUGAGUGUGGCUUGUGGUCUGUCCUGGGUUAGAGUUGUUAAUAUCACUAAGUGGACCAUCUAGAACGUUCCAGUCCCGCCUGACACCUUCAUUCGCAAGAGGGCAGAAAUCCAACAGAGGAUUGAGCAUCA
B15: chr16:71807222:71807223:-_ENSG00000166747_ENST00000299980|perfect_dup|motif|central (ssRNA)
RNA: GGGAGUUCUACAGUCCGACGAUCUCCUGCAAGAUCUCUGCACAUCUCUGAGGAGCCCAUGCAGCCGAGGGUACAAAGUGCGGACCCCUGUACGAAUUGCGUGCUAUGAUUAAGAUCAUUCUUGAUACAGUUGGUCAUGAGAAGCAACAGAGGAUUGAGCAUCA
B16: 82950117_82950237_576_3pUTR_ENSG00000005700_ENST00000306270|human|control|control (ssRNA)
RNA: GGGAGUUCUACAGUCCGACGAUCCUCCCCUUUGUUACCACAGAAAGGACAUCCAAAGCAUGCUUCAGGGAUCGACACUUUGAUGUGCAGUCAGGCAUGGGUGAACUCAUCCUAACUGUUUUUAUACCACUUACUUCAGAAUCGCAACAGAGGAUUGAGCAUCA
B17: chr11:46405157:46405158:+_ENSG00000110492_ENST00000395566|hu_hu|hu_hu_hu_mus_False|1_88 (ssRNA)
RNA: GGGAGUUCUACAGUCCGACGAUCCCCUCCCCACUUUGGGCACUUGGUGAGAGGGACAGAGGACAGGCGUGAUUGACAGAGCUGACAGGAAGACAAAAGGCACUGGUGGGUUAUAUCUUGGGCCUGUGGGAGAGGAGGCGUGGGCAACAGAGGAUUGAGCAUCA
B18: chr1:118502009:118502010:+_ENSG00000065183_ENST00000349139|hu_hu|FALSE|FALSE (ssRNA)
RNA: GGGAGUUCUACAGUCCGACGAUCCGUUAGAAUCAACUUCUCCCUCUUUUUCCUCUUCCUCUUCUUCUCUUCCAAGUGGCUAGUAGCAUCAGCAAAAAACAUAACUUCACUUUUUGCCUCGCAUUCCCUCUUGAGAUAAUCAAGCAACAGAGGAUUGAGCAUCA
B19: chr4:57314706:57314707:+_ENSG00000128050_ENST00000264221|hu_mus|hu_hu_hu_mus_True|1_78 (ssRNA)
RNA: GGGAGUUCUACAGUCCGACGAUCCAGAAUUUCAAAAAUAGCUUGUGUGGCAUGACUCAUGAUAUCCACUUCAGUCUGCCCUAUAACAAGGCCAGCAAAACAGAAUUUUGCAGCAAUGAGUUGCUCCUCAGACCACUGUGGGUCCAACAGAGGAUUGAGCAUCA
B20: chrX:160370135:160370136:+_ENSMUSG00000031367_ENSMUST00000069041|mus_mus|motif|central (ssRNA)
RNA: GGGAGUUCUACAGUCCGACGAUCAAUGAAGCAGCUUAGCAAAACAGUAAUACUGACAAGACAUCAUCUUACACCAUUAGCGGACAUGGACAUGAGAGGCAGUGACCAUCUACAGUGUGAAAUGCCACAAGAAGUCAUCAGCAACAACAGAGGAUUGAGCAUCA
B21: 149506530_149506650_4406_3pUTR_ENSMUSG00000003452_ENSMUST00000086829|mouse|control|control (ssRNA)
RNA: GGGAGUUCUACAGUCCGACGAUCAAGUUAAGGCUACCUGACAAAGACAAGGAGUCAGGGUUAGGCGCAGUUAUGUGGGCAGCACUUGAGAACUGAGGAAUCCAAGUUAGACCUUACAGCUCAACUAGCUGUUGUCCUUGUUUUCAACAGAGGAUUGAGCAUCA
B22: chr1:1735927:1735928:-_ENSG00000078369_ENST00000378609|hu_mus|FALSE|FALSE (ssRNA)
RNA: GGGAGUUCUACAGUCCGACGAUCCAGCUCACGACUCACACGCACAUUCCCUUCACGAGUUUUCAGGUUGUAAAUGGAGCAGAUGUUAUCCAGGCCACCACAGGCCACAUAAUUCCCAGAAGGAGCGUAUGCGCAGGUCAUGACCAACAGAGGAUUGAGCAUCA

target: T1, UNK ZnF1-3 (human, UniProt Q9C0B0 31-174); test: nsRBNS (natural sequence RNA bind-n-seq); RBNS binding buffer (assumed for nsRBNS): 25 mM Tris pH 7.5, 150 mM KCl, 3 mM MgCl2, 0.01% Triton X-100, 500 ug/ml BSA, 20 U/ml SUPERase-In, 4 C; UNK is unkempt and MSI1 is Musashi-1; names of the RNAs are library labels; protein concentration not given here; high values mean tight binding
T1 sequence: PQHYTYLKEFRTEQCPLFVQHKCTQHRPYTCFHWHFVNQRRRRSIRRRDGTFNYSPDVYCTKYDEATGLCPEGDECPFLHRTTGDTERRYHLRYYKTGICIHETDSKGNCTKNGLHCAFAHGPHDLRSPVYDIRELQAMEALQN

Compared with B1, B2 is higher in binding signal: 1.27 enrichment R for the first, 2.57 enrichment R for the second.

First: B3
Second: B4
The binding signal of the first is lower: 0.715 enrichment R for the first, 0.786 enrichment R for the second.

First: B5
Second: B6
The binding signal of the first is lower: 0.69 enrichment R for the first, 1.26 enrichment R for the second.

Going from B7 to B8, the binding signal falls from 2.21 enrichment R to 0.657 enrichment R.

First: B9
Second: B10
The binding signal of the first is higher: 0.769 enrichment R for the first, 0.688 enrichment R for the second.

First: B11
Second: B12
The binding signal of the first is higher: 0.693 enrichment R for the first, 0.424 enrichment R for the second.

Going from B13 to B14, the binding signal falls from 2.02 enrichment R to 1.11 enrichment R.

Going from B15 to B16, the binding signal falls from 1.33 enrichment R to 1.05 enrichment R.

Compared with B17, B18 is lower in binding signal: 3.09 enrichment R for the first, 0.933 enrichment R for the second.

Compared with B19, B20 is higher in binding signal: 0.975 enrichment R for the first, 1.62 enrichment R for the second.

First: B21
Second: B22
The binding signal of the first is lower: 1.03 enrichment R for the first, 1.63 enrichment R for the second.
